According to the supplement of paper PMC8728848:
The list shows a part of the results.

Experiments:
Experiment in all cases: glycan array binding signal (z-score within array); higher = stronger binding
Settings in all cases: glycan notation: IUPAC condensed, linker removed
[1] = molecular target: Neu5Ac(a2-6)Gal(b1-4)GlcNAc(b1-3)Gal(b1-4)GlcNAc(b1-3)Gal(b1-4)GlcNAc
How it was run: (§1)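 Glycan array data came from 3228 arrays in the Consortium for Functional Glycomics database, and only arrays with an available protein sequence were kept. Glycan names were put into IUPAC-condensed notation, and columns mapping to the same glycan were averaged. The binding signal is a within-array Z-score, averaged across arrays of one protein sequence run at different concentrations or buffers and across linkers. A negative Z-score can be read as non-binding.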

[2] = molecular target: Neu5Ac(a2-6)Gal(b1-4)GlcNAc(b1-3)Gal(b1-4)GlcNAc(b1-3)Gal(b1-4)GlcNAc(b1-2)Man(a1-3)[Neu5Ac(a2-6)Gal(b1-4)GlcNAc(b1-3)Gal(b1-4)GlcNAc(b1-3)Gal(b1-4)GlcNAc(b1-2)Man(a1-6)]GalNAc
How it was run: as §1

[3] = molecular target: Neu5Ac(a2-6)Gal(b1-4)GlcNAc(b1-3)Gal(b1-4)GlcNAc(b1-3)GalNAc
How it was run: as §1

[4] = molecular target: Neu5Ac(a2-6)Gal(b1-4)GlcNAc(b1-3)Gal(b1-4)GlcNAc(b1-3)[Neu5Ac(a2-6)Gal(b1-4)GlcNAc(b1-3)Gal(b1-4)GlcNAc(b1-6)]GalNAc
How it was run: as §1

[5] = molecular target: Neu5Ac(a2-6)Gal(b1-4)GlcNAc(b1-3)Gal(b1-4)GlcNAc(b1-6)[Gal(b1-3)]GalNAc
How it was run: as §1

[6] = molecular target: Neu5Ac(a2-6)Gal(b1-4)GlcNAc(b1-3)Gal(b1-4)[Fuc(a1-3)]GlcNAc(b1-3)Gal(b1-4)[Fuc(a1-3)]GlcNAc
How it was run: as §1

[7] = molecular target: Neu5Ac(a2-6)Gal(b1-4)GlcNAc(b1-3)GalNAc
How it was run: as §1

[8] = molecular target: Neu5Ac(a2-6)Gal(b1-4)GlcNAc(b1-3)[Neu5Ac(a2-6)Gal(b1-4)GlcNAc(b1-6)]GalNAc
How it was run: as §1

[9] = molecular target: Neu5Ac(a2-6)Gal(b1-4)GlcNAc(b1-6)GalNAc
How it was run: as §1

[10] = molecular target: Neu5Ac(a2-6)Gal(b1-4)GlcNAc(b1-6)[Gal(b1-3)GlcNAc(b1-3)]Gal(b1-4)Glc
How it was run: as §1

[11] = molecular target: Neu5Ac(a2-6)Gal(b1-4)GlcNAc(b1-6)[Gal(b1-3)]GalNAc
How it was run: as §1

[12] = molecular target: Neu5Ac(a2-6)Gal(b1-4)GlcNAc6S
How it was run: as §1

Neu5Ac(a2-6)GalNAc = molecular target: Neu5Ac(a2-6)GalNAc
How it was run: as §1

[13] = molecular target: Neu5Ac(a2-6)GalNAc(b1-4)GlcNAc
How it was run: as §1

[14] = molecular target: Neu5Ac(a2-6)GalNAc(b1-4)GlcNAc6S
How it was run: as §1

[15] = molecular target: Neu5Ac(a2-6)GlcNAc(b1-4)GlcNAc
How it was run: as §1

[16] = molecular target: Neu5Ac(a2-6)GlcNAc(b1-4)GlcNAc(b1-4)GlcNAc
How it was run: as §1

Neu5Ac(a2-8)Neu5Ac = molecular target: Neu5Ac(a2-8)Neu5Ac
How it was run: as §1

[17] = molecular target: Neu5Ac(a2-8)Neu5Ac(a2-3)Gal(b1-3)GalNAc(b1-4)[Neu5Ac(a2-3)]Gal(b1-4)Glc
How it was run: as §1

[18] = molecular target: Neu5Ac(a2-8)Neu5Ac(a2-3)Gal(b1-3)GalNAc(b1-4)[Neu5Ac(a2-8)Neu5Ac(a2-3)]Gal(b1-4)Glc
How it was run: as §1

[19] = molecular target: Neu5Ac(a2-8)Neu5Ac(a2-3)Gal(b1-4)Glc
How it was run: as §1

[20] = molecular target: Neu5Ac(a2-8)Neu5Ac(a2-3)Gal(b1-4)GlcNAc
How it was run: as §1

[21] = molecular target: Neu5Ac(a2-8)Neu5Ac(a2-3)[Gal(b1-3)GalNAc(b1-4)]Gal(b1-4)Glc
How it was run: as §1

[22] = molecular target: Neu5Ac(a2-8)Neu5Ac(a2-3)[GalNAc(b1-4)]Gal(b1-4)Glc
How it was run: as §1

[23] = molecular target: Neu5Ac(a2-8)Neu5Ac(a2-8)Neu5Ac
How it was run: as §1

[24] = molecular target: Neu5Ac(a2-8)Neu5Ac(a2-8)Neu5Ac(a2-3)Gal(b1-4)Glc
How it was run: as §1

[25] = molecular target: Neu5Ac(a2-8)Neu5Ac(a2-8)Neu5Ac(a2-3)[Gal(b1-3)GalNAc(b1-4)]Gal(b1-4)Glc
How it was run: as §1

[26] = molecular target: Neu5Ac(a2-8)Neu5Ac(a2-8)Neu5Ac(a2-3)[GalNAc(b1-4)]Gal(b1-4)Glc
How it was run: as §1

[27] = molecular target: Neu5Ac(a2-8)Neu5Ac(a2-8)Neu5Ac(a2-8)Neu5Ac(a2-3)[GalNAc(b1-4)]Gal(b1-4)Glc
How it was run: as §1

[28] = molecular target: Neu5Ac(a2-8)Neu5Gc(a2-3)Gal(b1-4)GlcNAc
How it was run: as §1

[29] = molecular target: Neu5Ac(b2-6)Gal(b1-4)GlcNAc
How it was run: as §1

Neu5Ac(b2-6)GalNAc = molecular target: Neu5Ac(b2-6)GalNAc
How it was run: as §1

[30] = molecular target: Neu5Ac9Ac(a2-3)Gal(b1-3)GlcNAc
How it was run: as §1

[31] = molecular target: Neu5Ac9Ac(a2-3)Gal(b1-4)GlcNAc
How it was run: as §1

[32] = molecular target: Neu5Ac9Ac(a2-6)Gal(b1-4)GlcNAc
How it was run: as §1

[33] = molecular target: Neu5Gc(a2-3)Gal(b1-3)GlcNAc
How it was run: as §1

[34] = molecular target: Neu5Gc(a2-3)Gal(b1-3)[Fuc(a1-4)]GlcNAc
How it was run: as §1

Neu5Gc(a2-3)Gal(b1-4)Glc = molecular target: Neu5Gc(a2-3)Gal(b1-4)Glc
How it was run: as §1

[35] = molecular target: Neu5Gc(a2-3)Gal(b1-4)GlcNAc
How it was run: as §1

[36] = molecular target: Neu5Gc(a2-3)Gal(b1-4)GlcNAc(b1-3)Gal(b1-4)GlcNAc(b1-2)Man(a1-3)[Neu5Gc(a2-3)Gal(b1-4)GlcNAc(b1-3)Gal(b1-4)GlcNAc(b1-2)Man(a1-6)]Man(b1-4)GlcNAc(b1-4)GlcNAc
How it was run: as §1

[37] = molecular target: Neu5Gc(a2-3)Gal(b1-4)[Fuc(a1-3)]GlcNAc
How it was run: as §1

[38] = molecular target: Neu5Gc(a2-6)Gal(b1-4)GlcNAc
How it was run: as §1

Neu5Gc(a2-6)GalNAc = molecular target: Neu5Gc(a2-6)GalNAc
How it was run: as §1

[39] = molecular target: Neu5Gc(a2-8)Neu5Ac(a2-3)Gal(b1-4)GlcNAc
How it was run: as §1

[40] = molecular target: Neu5Gc(a2-8)Neu5Gc(a2-3)Gal(b1-4)GlcNAc
How it was run: as §1

B1: HML-Native (Hypnea musciformis), P84871 (protein)
chain: QKFCTLDIAPVCCQIVIGGGMYTAGNACMCEGFVSGVGRCENPKECPCTREAQIPSCCSSRWGLVSVTGKCACDCLGGTVAFPEPCPSPY
glycan array binding signal (z-score) [1]: -0.271 | glycan array binding signal (z-score) [2]: -0.022 | glycan array binding signal (z-score) [3]: -0.182 | glycan array binding signal (z-score) [4]: -0.128 | glycan array binding signal (z-score) [5]: -0.205 | glycan array binding signal (z-score) [6]: -0.17 | glycan array binding signal (z-score) [7]: -0.248 | glycan array binding signal (z-score) [8]: -0.207 | glycan array binding signal (z-score) [9]: -0.15 | glycan array binding signal (z-score) [10]: -0.274 | glycan array binding signal (z-score) [11]: -0.239 | glycan array binding signal (z-score) [12]: -0.335 | glycan array binding signal (z-score) (Neu5Ac(a2-6)GalNAc): -0.337 | glycan array binding signal (z-score) [13]: -0.39 | glycan array binding signal (z-score) [14]: -0.338 | glycan array binding signal (z-score) [15]: -0.259 | glycan array binding signal (z-score) [16]: -0.225 | glycan array binding signal (z-score) (Neu5Ac(a2-8)Neu5Ac): -0.12 | glycan array binding signal (z-score) [17]: -0.326 | glycan array binding signal (z-score) [18]: -0.199 | glycan array binding signal (z-score) [19]: -0.347 | glycan array binding signal (z-score) [20]: -0.333 | glycan array binding signal (z-score) [21]: -0.343 | glycan array binding signal (z-score) [22]: -0.26 | glycan array binding signal (z-score) [23]: -0.199 | glycan array binding signal (z-score) [24]: -0.322 | glycan array binding signal (z-score) [25]: -0.222 | glycan array binding signal (z-score) [26]: -0.233 | glycan array binding signal (z-score) [27]: -0.316 | glycan array binding signal (z-score) [28]: -0.3 | glycan array binding signal (z-score) [29]: -0.194 | glycan array binding signal (z-score) (Neu5Ac(b2-6)GalNAc): -0.219 | glycan array binding signal (z-score) [30]: -0.136 | glycan array binding signal (z-score) [31]: -0.171 | glycan array binding signal (z-score) [32]: -0.261 | glycan array binding signal (z-score) [33]: -0.296 | glycan array binding signal (z-score) [34]: -0.25 | glycan array binding signal (z-score) (Neu5Gc(a2-3)Gal(b1-4)Glc): -0.352 | glycan array binding signal (z-score) [35]: -0.339 | glycan array binding signal (z-score) [36]: -0.113 | glycan array binding signal (z-score) [37]: -0.253 | glycan array binding signal (z-score) [38]: -0.24 | glycan array binding signal (z-score) (Neu5Gc(a2-6)GalNAc): -0.28 | glycan array binding signal (z-score) [39]: -0.289 | glycan array binding signal (z-score) [40]: -0.161
